Results from the supplement of paper PMC8728848.
This is one part of the list.

Columns and labels:
Assay in all cases: glycan array binding signal (z-score within array); higher = stronger binding
Conditions in all cases: glycan notation: IUPAC condensed, linker removed
[1] = molecular target: Neu5Ac(a2-3)Gal(b1-3)[Fuc(a1-4)]GlcNAc(b1-3)Gal(b1-4)[Fuc(a1-3)]GlcNAc
In short: (§1)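 Glycan array data came from 3228 arrays in the Consortium for Functional Glycomics database, and only arrays with an available protein sequence were kept. Glycan names were put into IUPAC-condensed notation, and columns mapping to the same glycan were averaged. The binding signal is a within-array Z-score, averaged across arrays of one protein sequence run at different concentrations or buffers and across linkers. A negative Z-score can be read as non-binding.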

[2] = molecular target: Neu5Ac(a2-3)Gal(b1-3)[Neu5Ac(a2-3)Gal(b1-4)]GlcNAc
In short: as §1

[3] = molecular target: Neu5Ac(a2-3)Gal(b1-3)[Neu5Ac(a2-6)]GalNAc
In short: as §1

[4] = molecular target: Neu5Ac(a2-3)Gal(b1-4)Glc
In short: as §1

[5] = molecular target: Neu5Ac(a2-3)Gal(b1-4)GlcNAc
In short: as §1

[6] = molecular target: Neu5Ac(a2-3)Gal(b1-4)GlcNAc(b1-2)Man(a1-3)[GlcNAc(b1-2)Man(b1-4)GlcNAc(b1-2)Man(a1-6)]Man(b1-4)GlcNAc(b1-4)GlcNAc
In short: as §1

[7] = molecular target: Neu5Ac(a2-3)Gal(b1-4)GlcNAc(b1-2)Man(a1-3)[Neu5Ac(a2-6)Gal(b1-4)GlcNAc(b1-2)Man(a1-6)]Man(b1-4)GlcNAc(b1-4)GlcNAc
In short: as §1

[8] = molecular target: Neu5Ac(a2-3)Gal(b1-4)GlcNAc(b1-3)Gal(b1-3)GlcNAc
In short: as §1

[9] = molecular target: Neu5Ac(a2-3)Gal(b1-4)GlcNAc(b1-3)Gal(b1-4)GlcNAc
In short: as §1

[10] = molecular target: Neu5Ac(a2-3)Gal(b1-4)GlcNAc(b1-3)Gal(b1-4)GlcNAc(b1-3)Gal(b1-4)GlcNAc
In short: as §1

[11] = molecular target: Neu5Ac(a2-3)Gal(b1-4)GlcNAc(b1-3)Gal(b1-4)[Fuc(a1-3)]GlcNAc
In short: as §1

[12] = molecular target: Neu5Ac(a2-3)Gal(b1-4)GlcNAc(b1-3)GalNAc
In short: as §1

[13] = molecular target: Neu5Ac(a2-3)Gal(b1-4)GlcNAc(b1-6)[Gal(b1-3)]GalNAc
In short: as §1

[14] = molecular target: Neu5Ac(a2-3)Gal(b1-4)GlcNAc(b1-6)[Neu5Ac(a2-3)Gal(b1-3)]GalNAc
In short: as §1

[15] = molecular target: Neu5Ac(a2-3)Gal(b1-4)GlcNAc6S
In short: as §1

[16] = molecular target: Neu5Ac(a2-3)Gal(b1-4)[Fuc(a1-3)]GlcNAc
In short: as §1

[17] = molecular target: Neu5Ac(a2-3)Gal(b1-4)[Fuc(a1-3)]GlcNAc(b1-3)Gal
In short: as §1

[18] = molecular target: Neu5Ac(a2-3)Gal(b1-4)[Fuc(a1-3)]GlcNAc(b1-3)Gal(b1-4)GlcNAc
In short: as §1

[19] = molecular target: Neu5Ac(a2-3)Gal(b1-4)[Fuc(a1-3)]GlcNAc(b1-3)Gal(b1-4)[Fuc(a1-3)]GlcNAc(b1-3)Gal(b1-4)[Fuc(a1-3)]GlcNAc
In short: as §1

[20] = molecular target: Neu5Ac(a2-3)Gal(b1-4)[Fuc(a1-3)]GlcNAc(b1-6)[Gal(b1-3)]GalNAc
In short: as §1

[21] = molecular target: Neu5Ac(a2-3)Gal(b1-4)[Fuc(a1-3)]GlcNAc(b1-6)[Neu5Ac(a2-3)Gal(b1-3)]GalNAc
In short: as §1

[22] = molecular target: Neu5Ac(a2-3)Gal(b1-4)[Fuc(a1-3)]GlcNAc6S
In short: as §1

[23] = molecular target: Neu5Ac(a2-3)Gal6S(b1-4)GlcNAc
In short: as §1

[24] = molecular target: Neu5Ac(a2-3)Gal6S(b1-4)[Fuc(a1-3)]GlcNAc
In short: as §1

[25] = molecular target: Neu5Ac(a2-3)GalNAc
In short: as §1

[26] = molecular target: Neu5Ac(a2-3)GalNAc(b1-4)GlcNAc
In short: as §1

[27] = molecular target: Neu5Ac(a2-3)[GalNAc(b1-4)]Gal(b1-4)Glc
In short: as §1

[28] = molecular target: Neu5Ac(a2-3)[GalNAc(b1-4)]Gal(b1-4)GlcNAc
In short: as §1

[29] = molecular target: Neu5Ac(a2-3)[Neu5Ac(a2-6)]GalNAc
In short: as §1

[30] = molecular target: Neu5Ac(a2-6)Gal
In short: as §1

[31] = molecular target: Neu5Ac(a2-6)Gal(b1-4)Glc
In short: as §1

[32] = molecular target: Neu5Ac(a2-6)Gal(b1-4)GlcNAc
In short: as §1

[33] = molecular target: Neu5Ac(a2-6)Gal(b1-4)GlcNAc(b1-2)Man(a1-3)Man(b1-4)GlcNAc(b1-4)GlcNAc
In short: as §1

[34] = molecular target: Neu5Ac(a2-6)Gal(b1-4)GlcNAc(b1-2)Man(a1-3)[Gal(b1-4)GlcNAc(b1-2)Man(a1-6)]Man(b1-4)GlcNAc(b1-4)GlcNAc
In short: as §1

[35] = molecular target: Neu5Ac(a2-6)Gal(b1-4)GlcNAc(b1-2)Man(a1-3)[GlcNAc(b1-2)Man(a1-6)]Man(b1-4)GlcNAc(b1-4)GlcNAc
In short: as §1

[36] = molecular target: Neu5Ac(a2-6)Gal(b1-4)GlcNAc(b1-2)Man(a1-3)[GlcNAc(b1-2)Man(b1-4)GlcNAc(b1-2)Man(a1-6)]Man(b1-4)GlcNAc(b1-4)GlcNAc
In short: as §1

B1: Flo11 (Saccharomyces cerevisiae), Q1H8S8 (protein)
chain: MGSSHHHHHHSSGLVPRGSHMFPTALVPRGSSEGTSCNSIVNGCPNLDFNWHMDQQNIMQYTLDVTSVSWVQDNTYQITIHVKGKENIDLKYLWSLKIIGVTGPKGTVQLYGYNENTYLIDNPTDFTATFEVYATQDVNSCQVWMPNFQIQFEYLQGSAAQYASSWQWGTTSFDLSTGCNNYDNQGHSQTDFPGFYWNIDCDNNCGGTKSS
glycan array binding signal (z-score) [1]: -0.426 | glycan array binding signal (z-score) [2]: -0.511 | glycan array binding signal (z-score) [3]: -0.483 | glycan array binding signal (z-score) [4]: -0.503 | glycan array binding signal (z-score) [5]: -0.499 | glycan array binding signal (z-score) [6]: -0.5 | glycan array binding signal (z-score) [7]: -0.497 | glycan array binding signal (z-score) [8]: -0.495 | glycan array binding signal (z-score) [9]: -0.476 | glycan array binding signal (z-score) [10]: 2.89 | glycan array binding signal (z-score) [11]: -0.5 | glycan array binding signal (z-score) [12]: -0.398 | glycan array binding signal (z-score) [13]: -0.485 | glycan array binding signal (z-score) [14]: -0.507 | glycan array binding signal (z-score) [15]: -0.499 | glycan array binding signal (z-score) [16]: -0.359 | glycan array binding signal (z-score) [17]: -0.507 | glycan array binding signal (z-score) [18]: 1.81 | glycan array binding signal (z-score) [19]: -0.492 | glycan array binding signal (z-score) [20]: 1.87 | glycan array binding signal (z-score) [21]: 1.82 | glycan array binding signal (z-score) [22]: -0.498 | glycan array binding signal (z-score) [23]: -0.501 | glycan array binding signal (z-score) [24]: -0.496 | glycan array binding signal (z-score) [25]: -0.497 | glycan array binding signal (z-score) [26]: -0.502 | glycan array binding signal (z-score) [27]: 2.92 | glycan array binding signal (z-score) [28]: 2.31 | glycan array binding signal (z-score) [29]: -0.496 | glycan array binding signal (z-score) [30]: -0.501 | glycan array binding signal (z-score) [31]: -0.507 | glycan array binding signal (z-score) [32]: -0.498 | glycan array binding signal (z-score) [33]: -0.501 | glycan array binding signal (z-score) [34]: -0.494 | glycan array binding signal (z-score) [35]: -0.502 | glycan array binding signal (z-score) [36]: -0.496
